Results on 120 sequences are retold here after the supplement of paper PMC10126150.

Sequences with one replicate were seen in a single cluster, so their values are uncertain.
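Also: ATP exposure 15 min at 22 °C before imaging.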

This series deals with ATP. The series can be described thus: switch fluorescence ratio, 500 uM ATP over buffer (Cy3 cluster intensity, sum of 5 cycles each) (fold (ratio)); higher = stronger signal-on switching upon ATP binding; sequences stand for … in TCGTCGGCAGCGTCAGATGTGTATAAGAGACAGTTTTTTTTTTTTTTTTTTTTTTTTT…TC. The settings on record: aptamer strand: ATP DNA aptamer (quencher-CACCTGGGGGAGTATTGCGGAGGAAGG + anchor), 100 nM annealed; ATP concentration: 500 uM; one replicate. In a few lines:
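Imaging in selection buffer was followed by imaging after 15 min with 500 uM ATP at 22 °C, for Cy3-labelled switching-strand clusters annealed to 100 nM quencher-labelled ATP aptamer on a modified Illumina MiSeq flow-cell. Five of these buffer/ATP cycles ran, separated by NaOH stripping and re-annealing. The fluorescence ratio per cluster is summed target-cycle over summed buffer-cycle Cy3 intensity, averaged per switch-domain sequence; clusters outside 100-1000 RFU were removed.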
For AGCGTTGAGC, the switch fluorescence ratio was determined as 1.01.
As to ATCTATAATG, the switch fluorescence ratio was 1.01.
Under GTTACTTACT stands 1.23; under GCTGACGGGG, 0.998; under GGTTGAGGGT, 0.947.
As to TCAAGCGGCC, the switch fluorescence ratio is 1.02.
With TCTTTGATAC the figure was 1.15.
With CAATCTCCGT the figure was 1.12.
Under GCAGATGTTA stands 1.04; under TTGTGTACT, 0.996; under TATGTAGGCA, 0.978.
In the case of ACTTCGTTTT, the switch fluorescence ratio stood at 1.03.
Under CTTCATAATG stands 1.04; under TGGTAGCTGG, 1; under GCGTCACTCC, 1.75.
With GGTGAGCAG the figure was 0.986; with AGCGATTTTG, 1.07.
With ATGAACCTGG the figure was 0.989; with GAGTCACTA, 1.03; with TGCTAATGTA, 1.06.
For TTATATCAGT, the switch fluorescence ratio turned out to be 0.964.
Under CGAACTGATA stands 1.04; under CAGCGTCGCG, 0.95.
Under TTGGCCGGCC stands 1.01; under CTAGCGGTG, 1.
Turning to TACATTCCGT, the switch fluorescence ratio was 1.17.
Under GGACGGGGCA stands 1.03; under TGTATGAGGA, 1.01.
CGGTTGGCTC: the switch fluorescence ratio stood at 0.947.
For CGTAGCAGTG, the switch fluorescence ratio was determined as 1.6.
Under CCGGGGGAAA stands 0.972.
As to ATAAGTTGTA, the switch fluorescence ratio stood at 1.02.
With GGGCCGAGTC, the switch fluorescence ratio stood at 1.
In the case of ACCTCGGGCA, the switch fluorescence ratio was 1.08.
With TGGAGTTAAG the figure was 0.987; with ATGGCCAGCG, 1.01.
Consider TTTGCGGGTC, for which the switch fluorescence ratio worked out at 0.956.
With GAGTACGACT the figure was 0.975; with ACCTGGGCTA, 1.04.
Under GGACTTATAC stands 1.17; under AATAGTCGAT, 1.03.
Regarding ATGTTAAGAA, the switch fluorescence ratio came to 0.997.
Under ATGGCATATG stands 1.02; under GTGAGACTTT, 1.01; under CAACCGCAGG, 1.01.
Consider GCGCAAGAT, for which the switch fluorescence ratio turned out to be 1.66.
With TGGGGCATTG the figure was 1; with GGGAAGTAGA, 0.995.
Under GGTAACCCCG stands 1.08; under ACTGGGAGAG, 1.01; under AAATCTAACG, 1.02.
Turning to GGAACTGATG, the switch fluorescence ratio was 1.04.
Under TGAGTCGTAA stands 1.03; under AGATGACGAG, 1.01.
With ATGAAGTATT the figure was 1.04; with GAGTCTAATT, 1.02.
As to GGGACGGGAA, the switch fluorescence ratio came to 1.35.
Under CTTGGGGCCA stands 1.02.
Under ATCCGCGTAA stands 4.04; under GGTGGCGAGT, 1.01.
With GATGGGCCC the figure was 0.933.
In the case of TGGATTCCAC, the switch fluorescence ratio was found to be 1.01.
With CGATCATAGA the figure was 1.03.
With ATATTGTATC the figure was 1.02; with AACGGTTAGA, 1.04; with TTATACTGCC, 1.16.
Under CACATTCAAT stands 0.998.
For TGTTGAGCGC, the switch fluorescence ratio was 0.981.
Under CGGGCATTCG stands 1.
With CTGAACTCTG the figure was 1.25.
Under TCCCATATCC stands 1.09; under ATTAGTATCA, 0.982.
Take GGAGGAAAAG: the switch fluorescence ratio was found to be 0.988.
Under CATTTGAATG stands 0.95; under TAACATAGGA, 1.01.
Under TTTACTAGAC stands 1.53; under GTTATCAAGT, 1.
Under GGTTTCAGCG stands 1.01.
GGAAAGTCTG: the switch fluorescence ratio turned out to be 1.01.
TCTTTAGGAG: the switch fluorescence ratio is 0.984.
With TTGTCGCCTA the figure was 1.04; with TTATACTACT, 1.1; with GATACACAGG, 1.28.
With TCGAGAACGG the figure was 0.981; with TCCAGCTACC, 1.34.
Under TGACTCTATG stands 1.09.
Take CTTAGTTAAG: the switch fluorescence ratio amounted to 0.991.
Under TCGGGTCGGC stands 0.969.
With TTTATCTGGC the figure was 1.05; with TCGTCCGAGC, 1.56; with AGCCTCGGTC, 0.974.
Under TCCAGCCGGG stands 1.06.
Regarding TATAGTGTGC, the switch fluorescence ratio came out at 0.998.
With GAACCCTCGC the figure was 1.19.
Under TCACAGTCAA stands 1.06; under TTATTAATAG, 0.954; under ACTGTTGTTC, 0.972.
Under TTTGCTGCTT stands 0.996.
As for CCGGCATTGG, the switch fluorescence ratio was found to be 1.48.
As for GCCAGAATAG, the switch fluorescence ratio was determined as 1.02.
Under TTATTTATA stands 0.957; under GATAACGCTA, 1.16.
Under AGCTTTGTAA stands 0.996; under GGTTCCGAGT, 1.1; under CTGGGCCTCC, 1.08.
With TGATTGCACT the figure was 1.02; with AGGGAATCAT, 0.988; with GCATAAGTGG, 0.949.
On to CGATCGACGT, for which the switch fluorescence ratio stood at 1.04.
With GTCAGTAATG the figure was 0.973; with GACCGGAGAT, 1.04.
Under GTGGGGCTGC stands 1.02; under ACTATAGGTC, 1.05; under AAACTTATCT, 1.02.
As to GGTGCTGGTC, the switch fluorescence ratio is 0.9.
On to GTGGAGAAGA, for which the switch fluorescence ratio was 0.97.
With GCCTTCCGAA the figure was 3.85; with GCAGCGCCAA, 1.04; with GGCGGACGCA, 1.02.
With AGAGGGTATA the figure was 0.963.
